Data from the BET-seq Pho4 binding data (Le et al. 2018).
Some of the results follow. The energies were worked out here from pooled read counts, against the library average; single values are noisy.

molecular target: T1, Pho4 (S. cerevisiae) (UniProt P07270); assay: relative binding free energy (BET-seq); higher = weaker binding; conditions: reference: library average
T1 sequence: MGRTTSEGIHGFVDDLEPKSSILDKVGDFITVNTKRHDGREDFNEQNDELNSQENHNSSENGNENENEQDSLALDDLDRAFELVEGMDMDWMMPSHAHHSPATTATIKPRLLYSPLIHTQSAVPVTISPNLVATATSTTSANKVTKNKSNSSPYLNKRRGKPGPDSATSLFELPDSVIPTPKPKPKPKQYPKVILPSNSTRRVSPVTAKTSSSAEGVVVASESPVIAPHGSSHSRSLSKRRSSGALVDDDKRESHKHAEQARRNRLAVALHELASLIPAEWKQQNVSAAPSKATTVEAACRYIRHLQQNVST

Sequence	relative binding free energy [kcal/mol]
TTAATCACGTGGACGG	0.18
GAATTCACGTGGCGGT	0.2
TGAGGCACGTGATGCG	-0.03
TTTGTCACGTGCGCGT	-0.05
TAGGTCACGTGCCGGT	-0.01
TAGTACACGTGGCGTA	-0.07
GGTAACACGTGATTTG	0.22
GATGGCACGTGGGAGT	-0.14
ATGTGCACGTGGTGGT	-0.04
ATGAGCACGTGGTATT	-0.1
GGTAGCACGTGTTTGG	0.04
TGGGTCACGTGGGGTA	-0.09
GGGGGCACGTGAGTAG	0.1
GGCTTCACGTGTACGG	0.3
GGATGCACGTGTGCAG	-0.04
CTTGACACGTGGTAGG	-0.07
TAATTCACGTGGGTAG	0.22
GGTTGCACGTGAGCCT	0.38
TTGATCACGTGGTACT	0.03
TGTGGCACGTGCAGGA	-0.11
GTATGCACGTGGTTGG	-0.07

Sequence	relative binding free energy [kcal/mol]
AAGGGCACGTGCAAGT	-0.15
TTGGGCACGTGTGATA	-0.01
GTGCGCACGTGACTTG	0.09
TGTCGCACGTGTTGAA	0
TGTGACACGTGTTGCA	-0.12
ATTGGCACGTGACGGA	-0.06
TTGAACACGTGTTTGG	0.04
TTGGCCACGTGAGTTT	0.2
TTAAGCACGTGAAAGG	0.27
TTTTCCACGTGGGGCG	-0.11
GGCTGCACGTGAAAGG	0.39
ATGTTCACGTGTCAAT	0.12
AGTGGCACGTGGATAG	-0.21
GTTGGCACGTGCGAGG	-0.05
TGAGACACGTGTGTGT	0.02
CTTGTCACGTGAATGT	0.21
TGATGCACGTGTGTAG	0.03
GTTAACACGTGTTTCT	0.04
CATGGCACGTGGAGGA	-0.06
TCGTGCACGTGTGAAT	0.12
TGGTTCACGTGTGATA	0.34

Sequence	relative binding free energy [kcal/mol]
GGGTACACGTGCAGGA	0.18
TCTTGCACGTGAGTGT	0.17
GTTTGCACGTGGCTTC	0.03
TATGACACGTGTTGTG	-0.02
TTTTTCACGTGGATGT	0.28
GATTTCACGTGTGTGA	0.27
TTCATCACGTGGGATG	0.07
TGTGGCACGTGCAGAA	-0.1
ATGTTCACGTGTTTCG	0.32
TATCTCACGTGTTAAG	0.47
TATTACACGTGTGGTT	0.08
AGGTACACGTGCGGGT	-0.02
GGATCCACGTGAGGGG	0.2
CATATCACGTGATGTT	0.27
GGGTTCACGTGTGGCC	0.44
GTGTACACGTGACGGG	0.27
AAGTTCACGTGAGAAG	0.38
TGTAGCACGTGGGCTG	-0.27
TTTTACACGTGTGTAT	0.16
GGACGCACGTGGGGGA	-0.31
CTCAGCACGTGTGGGG	-0.03
